Results reported in patent US20190169308A1 (ALLIGATOR BIOSCIENCE, published 2019).
Positions count from the first letter of the chain named. Blank lines part the entries; values can stand above or below the binder they belong to.

Experiments:
5T4 (SPR antigen) [1] = target: T1, 5T4 (SPR antigen) (UniProt Q13641 32-355, limits assumed, biotinylated on the MASS-1 platform); experiment: SPR MASS-1, biotinylated antigen on streptavidin chip, bsAb injected (bivalent)
T1 construct: also called biotinylated 5T4
T1 sequence (looked up): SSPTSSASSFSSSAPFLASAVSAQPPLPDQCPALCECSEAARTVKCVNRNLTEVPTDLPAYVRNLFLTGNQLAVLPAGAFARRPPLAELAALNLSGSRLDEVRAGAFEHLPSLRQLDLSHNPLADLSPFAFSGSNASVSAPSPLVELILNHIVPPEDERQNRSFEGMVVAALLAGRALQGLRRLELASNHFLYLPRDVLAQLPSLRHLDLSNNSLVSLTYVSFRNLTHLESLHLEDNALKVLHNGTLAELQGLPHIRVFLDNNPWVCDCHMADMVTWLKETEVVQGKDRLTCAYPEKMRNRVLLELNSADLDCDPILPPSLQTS

biotinylated CD137 = biotinylated CD137 (UniProt Q07011 24-186, limits assumed, biotinylated); experiment: as above
5T4-Fc [2] = target: T2, 5T4-Fc (human, UniProt Q13641 32-355, limits assumed); experiment: dual ELISA: plate coated with 5T4-Fc, bsAb titrated, detection with CD137-bio + streptavidin-HRP, RLU; signal needs both arms
T2 construct: obtained from Peter L. Stern, University of Manchester; also called h5T4-Fc; recombinant 5T4
T2 sequence (looked up): T1 sequence (looked up)

[3] = target: T3, cynomolgus 5T4 on transfected CHO cells (Macaca mulatta (cynomolgus), UniProt F7CT46 35-420); experiment: flow cytometry on CHO-K cells transfected with cynomolgus 5T4, anti-IgG(Fc)-PE, MFI
T3 construct: also called cyno5T4; cy5T4
T3 sequence: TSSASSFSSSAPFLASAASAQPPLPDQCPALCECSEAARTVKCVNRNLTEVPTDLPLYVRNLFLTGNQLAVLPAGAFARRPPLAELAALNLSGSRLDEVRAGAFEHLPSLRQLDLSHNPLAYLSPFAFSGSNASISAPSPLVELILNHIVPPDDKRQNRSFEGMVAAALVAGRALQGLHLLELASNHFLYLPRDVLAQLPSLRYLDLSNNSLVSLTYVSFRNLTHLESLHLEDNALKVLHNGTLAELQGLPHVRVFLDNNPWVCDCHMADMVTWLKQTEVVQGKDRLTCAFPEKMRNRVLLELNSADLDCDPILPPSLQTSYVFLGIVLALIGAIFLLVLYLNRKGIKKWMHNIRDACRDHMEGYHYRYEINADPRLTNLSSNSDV

5T4-Fc [4] = target: T2, 5T4-Fc; experiment: dual ELISA: coated 5T4-Fc, detection with CD137-bio
5T4-Fc [5] = target: T2, 5T4-Fc; experiment: cell-based or functional assay
5T4 (SPR antigen) [6] = target: T1, 5T4 (SPR antigen); experiment: SPR MASS-1, scFv part of the bsAb against parental mAb
[7] = target: T4, cynomolgus CD137 on transfected CHO cells (cynomolgus; human); experiment: flow cytometry on CHO-K cells transfected with cynomolgus CD137, anti-IgG(Fc)-PE, MFI
T4 construct: extracellular domain;domain: transmembrane and intracellular part; also called CHO-cyCD137; CHOcynoCD137

[8] = target: T5, recombinant human CD137-Fc (R&D #838-4B) (human, UniProt Q07011 24-186); experiment: BLI Octet, bsAb on anti-Fab-CH1 tips, CD137-Fc as analyte
T5 construct: bought; also called CD137 (R&D #838-4B); not shown: Fc part, bought reagent, not described

Chain of biotinylated CD137 (Q07011 24-186 limits assumed): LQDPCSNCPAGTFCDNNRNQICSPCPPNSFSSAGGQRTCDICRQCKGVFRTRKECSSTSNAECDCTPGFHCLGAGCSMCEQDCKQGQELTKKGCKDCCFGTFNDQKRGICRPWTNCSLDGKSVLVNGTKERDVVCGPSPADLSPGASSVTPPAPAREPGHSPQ

Kd (5T4 (SPR antigen) [1]): 0.937 nM
koff (5T4 (SPR antigen) [1]): 0.000455 s⁻¹
kon (5T4 (SPR antigen) [1]): 486000 M⁻¹ s⁻¹
Kd (biotinylated CD137): 0.129 nM
koff (biotinylated CD137): 0.000162 s⁻¹
kon (biotinylated CD137): 1.26e+06 M⁻¹ s⁻¹
EC50 (read off the curve) (5T4-Fc [2]): ~0.4 nM
EC50 (read off the curve) [3]: ~4 nM
EC50 (5T4-Fc [4]): 0.2 nM
IFN-γ release by human CD8+ T cells on plates coated with 5T4-Fc and anti-CD3, EC50 (5T4-Fc [5]): 0.6 to 0.9 nM
B1: 1618-1210 (bispecific antibody)
heavy: EVQLLESGGGLVQPGGSLRLSCAASGFTFSYGSMYWVRQAPGKGLEWVSSISSGSGSTYYADSVKGRFTISRDNSKNTLYLQMNSLRAEDTAVYYCARSSYYGSYYSIDYWGQGTLVTVSS[no letters for human IgG1 constant region]GGGGSGGGGS[no letters for about 100 residues]YYGGYYSAWMDYWGQGTLVTVSSGGGGSGGGGSGGGGSDIQMTQSPSSLSASVGDRVTITCRASQSISSYLNWYQQKPGKAPKLLIYAASSLQSGVPSRFSGSGSGTDFTLTISSLQPEDFATYYCQQTYGYLHTFGQGTKLEIK
light: DIQMTQSPSSLSASVGDRVTITCRASQSISSYLNWYQQKPGKAPKLLIYAASSLQSGVPSRFSGSGSGTDFTLTISSLQPEDFATYYCQQYYDNLPTFGQGTKLEIKRTVAAPSVFIFPPSDEQLKSGTASVVCLLNNFYPREAKVQWKVDNALQSGNSQESVTEQDSKDSTYSLSSTLTLSKADYEKHKVYACEVTHQGLSSPVTKSFNRGEC
notes: Morrison format IgG-scFv

Kd (5T4 (SPR antigen) [1]): 0.601 nM
koff (5T4 (SPR antigen) [1]): 4.62e-05 s⁻¹
kon (5T4 (SPR antigen) [1]): 76500 M⁻¹ s⁻¹
fold reduction of affinity against the parental mAb (5T4 (SPR antigen) [6]): ~6 fold
EC50 (5T4-Fc [4]): 1.47 nM
B2: 1618-1208 (bispecific antibody)
heavy: not shown
light: B1 light
notes: Morrison format IgG-scFv

binding result [7]: binds
Kd [8]: 1.9 nM
koff [8]: 0.000654 s⁻¹
kon [8]: 345000 M⁻¹ s⁻¹
B3: 1210-1618LO3 (bispecific antibody, human IgG1, kappa)
heavy: [no letters for about 100 residues]YYGGYYSAWMDYWGQGTLVTVSS[no letters for human IgG1 constant region with changes]GGGGSGGGGSEVQLLESGGGLVQPGGSLRLSCAASGFTFSYGSMYWVRQAPGKGLEWVSSISSGSGSTHYADSVKGRFTISRDNSKNTLYLQMNSLRAEDTAVYYCARSSYYGSYYSIDYWGQGTLVTVSSGGGGSGGGGSGGGGSDIQMTQSPSSLSASVGDRVTITCRASQSIRQYLNWYQQKPGKAPKLLIYGASSLHSGVPSRFSGSGSGTDFTLTISSLQPEDFATYYCQQYYDNLPTFGQGTKLEIK
light: B1 light with Y91T, D93G, N94Y, P96H
